The results in this text go back to PubChem BioAssay AID254 (DTP/NCI, 2004).

Toxic doses and inconclusive results are not listed. Not every entry of the source has a single result; some have several. They are shown here; other results are not. An entry can have further records. The records of an entry repeat one measurement in other runs, samples, wells, individuals or studies.

The assay deals with L1210 leukemia iv in BDF1 mice, survival T/C. Nature of the assay: NCI In Vivo Anticancer Drug Screen. Data for tumor model L1210 Leukemia (intravenous) in B6D2F1 (BDF1) mice. As to conditions: endpoint: mean survival time; dose: 12.0 mg/kg/injection; schedule: Q01DX001 (ip); vehicle: carboxymethylcellulose (CMC); higher = longer survival. The protocol: The antitumor activity of compounds was measured in mice bearing transplantable tumors. Survival or tumor size were measured and the results are expressed as the measurement made in the treated group (T) divided by the measurement made in the vehicle treated control group (C). The tumor model used in this assay is L1210 Leukemia (intravenous) in B6D2F1 (BDF1) mice

With `O=NN(CCCl)C(=O)N[C@H]1CCCC[C@H]1Cl`, the T/C was 121 % of control and 157 % of control.
